# Experimental data published in the supplement of paper PMC7826260.
# The other results are listed elsewhere or left out. Viral Rep nickase domains cut single-stranded DNA in vitro (1 h at 37 °C, 3 µM enzyme); the outer parts of the 90-letter strands are left off. The score is log2 (uncut reads / reads without enzyme); uncut sequences lie near 0, cut ones below; no hit call is given. Counts are relative to all reads; values above 0 arise when much of the pool is cut.
# Legend:
# Assay in all cases: uncleaved DNA left, log2 of reads against the no-enzyme library (log2 ratio); higher = less cleavage (more negative = more Rep cleavage of the k-mer); sequences stand for … in CTCGTCCG…ACCGGAGA
# [1] = tested on: T1, Rep nickase domain of Muscovy duck circovirus
# T1 sequence (residues 1-111, tag not shown): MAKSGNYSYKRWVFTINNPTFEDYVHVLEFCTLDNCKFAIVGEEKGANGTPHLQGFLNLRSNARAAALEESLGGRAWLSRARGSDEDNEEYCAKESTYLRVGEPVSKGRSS
# Protocol: (§1)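 A pool of 90-nt single-stranded DNAs with seven random bases just before the constant AC of the nick site (name = the seven bases) was cut by 3 µM recombinant His6-SUMO-tagged Rep nickase domain (300 nM DNA, 50 mM HEPES pH 8.0, 50 mM NaCl, 1 mM MnCl2, 1 h, 37 °C, three replicates). Uncut DNA was amplified and sequenced.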
# [2] = tested on: T2, Rep nickase domain of banana bunchy top virus
# T2 sequence (residues 1-94, tag not shown): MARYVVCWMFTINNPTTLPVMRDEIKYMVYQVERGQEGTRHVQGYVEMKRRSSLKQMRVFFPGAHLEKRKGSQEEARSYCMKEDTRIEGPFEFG
# Protocol: as §1
# [3] = tested on: T3, Rep nickase domain of cabbage leaf curl virus
# T3 sequence (residues 1-116, tag not shown): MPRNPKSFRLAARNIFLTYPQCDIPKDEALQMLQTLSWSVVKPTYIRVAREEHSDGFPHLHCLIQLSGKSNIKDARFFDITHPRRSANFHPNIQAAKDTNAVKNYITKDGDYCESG
# Protocol: as §1
# [4] = tested on: T4, Rep nickase domain of chickpea chlorotic dwarf virus
# T4 sequence (residues 1-124, tag not shown): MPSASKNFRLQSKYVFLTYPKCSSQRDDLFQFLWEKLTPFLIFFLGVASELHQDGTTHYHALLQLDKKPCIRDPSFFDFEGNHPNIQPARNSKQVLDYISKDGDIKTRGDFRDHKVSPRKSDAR
# Protocol: as §1
# [5] = tested on: T5, Rep nickase domain of faba bean necrotic yellows virus
# T5 sequence (residues 1-98, tag not shown): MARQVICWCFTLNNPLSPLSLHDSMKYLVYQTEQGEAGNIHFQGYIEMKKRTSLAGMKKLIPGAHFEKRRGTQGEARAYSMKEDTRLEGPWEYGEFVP
# Protocol: as §1
# [6] = tested on: T6, Rep nickase domain of maize striate mosaic virus
# T6 sequence (residues 1-117, tag not shown): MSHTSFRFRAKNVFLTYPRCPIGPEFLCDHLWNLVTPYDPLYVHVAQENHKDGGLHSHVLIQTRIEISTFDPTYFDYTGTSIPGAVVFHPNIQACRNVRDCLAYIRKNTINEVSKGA
# Protocol: as §1
# [7] = tested on: T7, Rep nickase domain of porcine circovirus 2
# T7 sequence (residues 2-116, tag not shown): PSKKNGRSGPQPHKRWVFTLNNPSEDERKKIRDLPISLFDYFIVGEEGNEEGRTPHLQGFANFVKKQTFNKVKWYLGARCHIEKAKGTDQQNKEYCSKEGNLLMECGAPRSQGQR
# Protocol: as §1
# [8] = tested on: T8, Rep nickase domain of tomato golden mosaic virus
# T8 sequence (residues 1-124, tag not shown): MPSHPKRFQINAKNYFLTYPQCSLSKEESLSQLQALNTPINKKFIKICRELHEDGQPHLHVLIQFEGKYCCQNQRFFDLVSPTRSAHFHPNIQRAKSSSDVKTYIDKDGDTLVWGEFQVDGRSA
# Protocol: as §1
# [9] = tested on: T9, Rep nickase domain of tomato yellow leaf curl virus
# T9 sequence (residues 1-136, tag not shown): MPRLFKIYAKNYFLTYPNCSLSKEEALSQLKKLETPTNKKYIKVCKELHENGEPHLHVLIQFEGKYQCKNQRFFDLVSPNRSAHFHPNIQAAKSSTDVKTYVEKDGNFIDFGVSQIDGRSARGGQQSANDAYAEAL
# Protocol: as §1
# [10] = tested on: T10, Rep nickase domain of wheat dwarf virus
# T10 sequence (residues 1-137, tag not shown): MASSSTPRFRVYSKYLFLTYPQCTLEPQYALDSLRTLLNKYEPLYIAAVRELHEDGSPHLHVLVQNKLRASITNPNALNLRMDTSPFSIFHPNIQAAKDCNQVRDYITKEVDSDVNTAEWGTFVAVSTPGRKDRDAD
# Protocol: as §1
Sequence,uncleaved DNA left (log2) [1],uncleaved DNA left (log2) [2],uncleaved DNA left (log2) [3],uncleaved DNA left (log2) [4],uncleaved DNA left (log2) [5],uncleaved DNA left (log2) [6],uncleaved DNA left (log2) [7],uncleaved DNA left (log2) [8],uncleaved DNA left (log2) [9],uncleaved DNA left (log2) [10]
GACTGGA,-0.0526,-0.0578,0.0413,0.411,-0.138,0.794,-0.542,-0.079,-0.0914,-0.0882
TTCATCT,-0.00371,0.0405,0.168,-1.64,-0.0754,-0.302,-0.162,0.0234,0.0695,-0.0547
CATTCTT,-3.52,-3.81,-1.24,-2.57,-0.909,-0.89,-3.74,-0.996,0.0643,-0.634
GGCTCGT,-0.0158,0.0356,0.316,0.755,0.0382,1.6,-0.058,0.108,0.0672,-0.000775
ACCTCAG,0.122,-0.0115,-0.524,-0.629,-0.0223,-1.17,0.0522,-0.011,-0.0188,-0.0589
GGGAAGG,0.0634,0.062,0.845,1.89,-0.0667,2.12,0.249,-0.000822,-0.0173,0.121
AACTTCA,-0.301,-0.0787,-0.251,-2.54,0.0264,-0.751,-3.15,-0.034,0.0337,0.0801
CCAGTAA,0.0112,-0.022,0.0237,-0.363,0.0564,-0.5,0.0101,0.145,-0.109,0.0758
TCTAAGT,0.0651,0.0558,0.0974,-0.281,-0.0279,-0.766,-0.0539,0.0204,-0.00128,-0.0102
TAGTGAT,-0.237,-0.56,-0.298,0.135,-0.526,1.65,-3.57,-0.0295,-0.0716,0.0161
TGTGTAC,0.0434,0.00335,0.323,0.68,-0.0586,1.54,0.0776,0.0856,0.0754,0.0659
GCAGTCT,-0.188,0.0157,-0.00882,-1.29,-0.197,-0.251,-0.0689,-0.0524,-0.0466,-0.174
TGCACAT,0.109,0.0385,0.595,1.34,-0.0709,1.52,0.142,-0.035,0.123,0.142
TCCGTAA,-0.0613,-0.00555,0.0936,-0.14,-0.0435,-0.146,-0.0953,-0.116,0.107,-0.142
TGATATC,0.025,0.0629,0.34,0.513,0.0065,0.56,0.0452,0.0569,0.0191,0.09
CTAAGCG,0.0138,0.0591,-0.735,0.434,0.0169,-0.684,0.165,-0.113,0.0576,-0.105
ACCTCCC,-0.0959,0.0654,-0.094,-0.0377,0.0983,0.224,-0.0284,-0.021,-0.123,-0.0109
GTACAAG,-0.0538,0.00263,-0.348,-0.599,0.0376,-0.82,0.0543,0.0642,-0.0196,-0.0719
GCTCTAG,-0.067,-0.137,-0.707,-0.483,-0.0629,-0.995,0.0366,-0.113,-0.124,-0.234
GCAACGC,-0.0728,0.061,-0.0994,-0.0645,0.0117,-0.624,0.102,0.0773,-0.0238,-0.00853

Sequence,uncleaved DNA left (log2) [1],uncleaved DNA left (log2) [2],uncleaved DNA left (log2) [3],uncleaved DNA left (log2) [4],uncleaved DNA left (log2) [5],uncleaved DNA left (log2) [6],uncleaved DNA left (log2) [7],uncleaved DNA left (log2) [8],uncleaved DNA left (log2) [9],uncleaved DNA left (log2) [10]
TCTACCA,-0.239,-0.148,-0.197,-2.48,-0.123,-0.327,-0.789,-0.151,-0.0221,-0.137
CGCGTTA,-0.0106,-0.0509,-0.377,-0.707,0.0925,-0.748,-0.131,-0.143,0.00451,-0.187
CTTATAT,0.031,0.059,0.12,-0.821,0.101,-0.678,-0.14,-0.0396,0.188,0.234
ATGGTAG,-0.111,-0.0293,-0.618,-0.449,0.0675,-1.16,0.218,-0.0315,0.0284,-0.0774
ACCACCG,-0.0429,0.0455,-0.683,0.427,-0.0911,-0.301,0.0137,-0.0275,0.0331,-0.113
GATTGCA,-0.186,-0.0595,-0.676,-0.345,0.0288,-0.794,-0.251,-0.00512,0.117,0.0387
ACCTTCT,-0.793,-0.103,-0.458,-2.33,-0.0973,-1.01,-2.63,-0.0475,-0.326,-0.191
TTGCACA,-0.121,0.0678,-0.26,-0.811,0.0692,-0.968,0.134,0.0147,0.13,0.00351
GGGTGGC,0.051,0.0641,0.79,1.74,-0.0187,2.1,0.211,0.0246,0.0599,0.0917
CTAGAAG,0.00165,0.0806,-0.712,-0.376,0.169,-0.95,0.362,0.204,0.194,-0.136
TTGTGGC,0.00563,-0.00767,-0.206,-0.582,-0.00859,-0.977,0.159,-0.101,-0.0391,-0.0825
ACTGAGC,0.0856,0.0305,-0.00709,0.511,0.000663,0.241,0.156,0.123,0.008,0.0669
GATAAGA,0.0759,0.0144,0.0477,0.277,0.0337,-0.504,0.0247,0.0285,0.0471,0.0397
GGTTCTC,-0.116,-0.0638,0.218,0.906,-0.262,1.54,-0.109,-0.147,0.0233,-0.045
TGAGCGC,0.0184,-0.0286,-0.445,-0.381,-0.0428,-0.912,-0.00257,-0.0756,-0.091,-0.112
GTGACTT,0.0642,-0.0703,0.706,1.67,-8.54e-06,2.13,0.15,-0.0599,0.0326,0.178
TCGACCT,-0.126,0.0252,-0.00336,0.00625,-0.0565,0.675,-0.137,-0.0146,0.000405,0.0264
AAACTTC,-0.101,-0.127,-0.278,-1.34,-0.0179,-0.852,-0.145,-0.0513,-0.103,-0.0854
CCAGCTT,-0.123,-0.24,0.106,-1.05,-0.0252,0.712,-0.093,-0.00827,-0.0615,-0.0736
TTTCTAA,0.0411,0.119,0.265,0.225,0.0106,0.431,0.0356,0.0287,0.124,0.147

Sequence,uncleaved DNA left (log2) [1],uncleaved DNA left (log2) [2],uncleaved DNA left (log2) [3],uncleaved DNA left (log2) [4],uncleaved DNA left (log2) [5],uncleaved DNA left (log2) [6],uncleaved DNA left (log2) [7],uncleaved DNA left (log2) [8],uncleaved DNA left (log2) [9],uncleaved DNA left (log2) [10]
AGTGCTC,0.00344,-0.0217,0.0451,-0.103,-0.0554,0.321,-0.115,-0.093,-0.0844,0.00593
GGACTAG,-0.0396,0.0635,0.536,1.5,0.00305,1.63,0.0742,0.0102,0.104,0.0708
CAATCGA,0.0426,0.109,-0.768,-0.955,0.0122,-1.16,0.201,0.0477,0.0475,0.0505
ACCCTAC,-0.103,-0.115,-0.407,-1.7,-0.1,-0.884,0.028,0.00301,-0.232,-0.0782
GCAGAGT,0.0564,0.168,-0.0591,-0.128,0.0552,-0.418,0.00112,0.145,0.0905,0.092
CTAGTCT,-0.0824,-0.0588,-0.289,-2.08,-0.00992,-0.892,-0.137,-0.14,-0.174,-0.175
GCTAACT,-0.0399,0.103,-0.185,-1.89,0.0419,-0.0877,-0.153,-0.00577,0.0671,-0.0767
TCTACCG,-0.0892,-0.0725,-0.946,-1.78,-0.0297,-1.1,0.00934,-0.104,-0.0779,-0.121
AGGATTG,0.109,0.079,0.107,0.671,0.035,1.48,0.221,0.156,-0.0664,0.0915
GCCACAA,-0.0545,-0.00977,0.0835,0.46,-0.138,0.164,-0.0709,-0.0856,-0.0919,0.0153
TAAAACC,-0.149,0.0164,-1.95,-2.77,-0.00525,-0.888,-0.479,-0.0758,0.0304,-0.368
GTCCCAC,-0.02,0.093,0.256,0.87,-0.0601,1.64,0.0307,-0.0191,0.0406,0.104
AAAGCGT,0.0468,0.0203,-0.583,-0.517,0.134,-0.989,0.196,0.0626,0.0854,-0.0882
GCCAATT,0.0543,-0.00447,0.199,-0.668,-0.0528,0.176,-0.104,0.0518,0.184,-0.0419
ACAGCAA,0.00446,0.0748,-0.337,-0.465,0.168,-1.03,0.0515,-0.00258,-0.0046,-0.0281
CTAGCAG,0.0879,0.0226,-0.557,-0.554,0.163,-0.982,0.218,0.0567,0.0587,-0.0243
GATATTG,-0.000408,-0.101,-0.172,0.00158,0.0622,-0.676,0.105,-0.00635,-0.0435,-0.0564
CAGGCAC,0.0505,0.0573,-0.0488,0.17,-0.126,-0.282,0.0611,0.021,-0.00992,-0.00223
GGGTCTT,-0.0916,0.115,0.792,1.91,0.0436,2.24,-0.423,-0.142,0.0874,0.126
GCGTGAC,0.0966,0.166,0.526,1.38,-0.00681,1.7,0.141,0.0328,-0.0394,0.074
